Data from PubChem BioAssay AID720542 (National Center for Advancing Translational Sciences (NCATS), 2013).
Values joined by “and” are separate entries in the source; they are usually repeats but may differ in a detail not shown here. Identical values can stand only once. In all, about 360,000 compounds went through this assay and about 740 (0.21%) were called active. The shares of active, inactive and inconclusive entries below differ from those in the screen. Calls follow the shape of the dose curve; as a rule, active = well fitted inhibition curve with a large enough effect; inconclusive = small, poorly fitted or top-dose-only effect; inactive = no such curve, though single readings can be large or run the other way. Where the call is inconclusive, the potency comes from a doubtful curve fit.

The compounds below were run on Plasmodium falciparum AMA1 (3D7) - RON2 peptide interaction (assay: qHTS for Inhibitors of AMA1-RON; Towards Development of Antimalarial Drug Lead: Primary Screen). Details: AlphaScreen AMA1-biotinylated RON2 peptide binding; activity change, negative = inhibition: at 58.2 µM (top of the series) unless noted.
In short: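 AMA1 (3D7) with his tag at 25 nM final met compounds first, then biotinylated RON2 peptide at 25 nM; detection used donor plus acceptor beads, 10 µg/mL apiece, read by AlphaScreen after 30 min at room temperature.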
Also: nearly all actives have a fitted effect of over 45% in size.
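For activity change, negative = inhibition in this document: 0% = vehicle wells and -100% = peptide control.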
Potency is read from the fitted curve at half-maximal effect; tags tell the direction and shape of the fitted curve.

Row | Structure (SMILES) | Potency | activity change, negative = inhibition
1 | Clc1ccccc1CN1CCC(Cc2ccccc2)CC1 | inconclusive: 28.2 µM [inhibitor, partial curve] | 
2 | O=S(=O)(NNc1cccc(Cl)n1)c1ccc(Cl)cc1 | inconclusive: 14.1 µM [inhibitor, partial curve] | 
3 | NC(=O)N/N=C/c1sc(N2CCCCC2)nc1-c1cccs1 |  | inactive: 4.07%
4 | Cc1c(NC(=O)C(C)OC(=O)c2cc(-c3cccc4ccccc34)nc3ccccc23)c(=O)n(-c2ccccc2)n1C (stereo not drawn) |  | inactive: -4.41%
5 | CCOC(=O)c1[nH]c(CN2CCN(c3ccc(OC)cc3)CC2)c(C(=O)OCC)c1C | inconclusive: 22.4 µM [inhibitor, partial curve] | 
6 | COc1ccc(N2CCC(CNC(=S)Nc3cc(C)ccc3C)C2)cc1 (stereo not drawn) | inconclusive: 28.2 µM [inhibitor, single point] | 
7 | CC1CCCCN1CCCNC(=O)c1ccc2c(=O)n(CCc3ccccc3)c(=O)[nH]c2c1 (stereo not drawn) |  | inactive: 1.37%
8 | CCOC(=O)C1=C(O)C(=O)N(c2ccccc2)C1c1cccc([N+](=O)[O-])c1 (stereo not drawn) | inconclusive: 8.91 µM [inhibitor, single point] | 
9 | C(=C\c1ccccc1)/CN1CCN(C(c2ccccc2)c2nnnn2-c2ccc3c(c2)OCCO3)CC1 (stereo not drawn) | inconclusive: 28.2 µM [inhibitor, partial curve] | 
10 | C/C(=N\NC(=S)NCc1ccccc1)c1ccccc1 | inconclusive: 39.8 µM [inhibitor, single point] | 
11 | O=C(Nc1cccc2ccccc12)ON=C1CCCCC1 |  | inactive: -7.73%
12 | COc1ccc(CCC(=O)NCC(c2ccco2)N2CCc3ccccc32)cc1 (stereo not drawn) | inconclusive: 35.5 µM [inhibitor, partial curve] | 
13 | CCN(CC(=O)Nc1c(C(=O)OC)[nH]c2ccc(C)cc12)c1ccc2c(c1)OCO2 | inconclusive: 23.8 µM [inhibitor, single point] | 
14 | CC(C)c1ccc2[nH]c3c(c2c1)[C@@H]1CCN2C(=O)CCC[C@H](C3)[C@H]12 |  | inactive: -20.7%
15 | Cn1c(-c2ccc3c(c2)OCO3)cnc1NCc1cccc(Cl)c1 | inconclusive: 16.8 µM [inhibitor, partial curve] | 
16 | CC1CCCN(CCOc2cccc(Oc3ccccc3)c2)C1 (stereo not drawn) | inconclusive: 25.1 µM [inhibitor, partial curve] | 
17 | COc1ccc(-c2noc(CN3CCN(C(=O)c4cccs4)CC3)n2)c(OC)c1OC |  | inactive: -3.97%
18 | Cc1cccc(C)c1NC(=O)COC(=O)c1cc(=O)[nH]c2ccccc12 | inconclusive: 20 µM [inhibitor, partial curve] | 
19 | Cc1cccc2c1NC(C)CC2C (stereo not drawn) | inconclusive: 39.8 µM [inhibitor, single point] | 
20 | O=C1c2ccccc2C(=O)c2c(NCc3cccnc3)cccc21 | inconclusive: 2.82 µM [inhibitor, full curve] | 
21 | Nc1nc(Sc2ccc([N+](=O)[O-])c3nonc23)c2[nH]cnc2n1 | inconclusive: 2 µM [inhibitor, partial curve] | 
22 | CC(C)CCNC(=O)c1ccc(-n2cnc3cccnc32)cc1 |  | inactive: 8.83%

Row | Structure (SMILES) | Potency | activity change, negative = inhibition
23 | CCCCS(=O)(=O)Nc1ccc(Cc2ccncc2)cc1 | inconclusive: 13.4 µM [inhibitor, partial curve] | 
24 | CCOC(=O)C1CCCN(Cc2c(F)cccc2Cl)C1 (stereo not drawn) | inconclusive: 29.9 µM [inhibitor, partial curve] | 
25 | O=C(CNC(=O)Cc1ccccc1)N=Nc1c(O)[nH]c2ccc(Br)cc12 | inconclusive: 31.6 µM [inhibitor, single point] | 
26 | COc1ccc(CC2=CC(=O)c3ccccc3C2=O)cc1 | inconclusive: 20 µM [inhibitor, partial curve] | 
27 | COc1ccc(CN2CCN(c3ccccn3)CC2)c(OC)c1C | inconclusive: 28.2 µM [inhibitor, partial curve] and inconclusive: 14.1 µM [inhibitor, partial curve] | 
28 | COc1ccc(OC)c(NC(=O)COc2ccc(Br)cc2)c1 | inconclusive: 0.631 µM [inhibitor, partial curve, poor fit] | 
29 | COC(=O)c1ccc(C2Nc3cccc4cccc(c34)N2)cc1 |  | inactive: -21.6%
30 | CC(CCN1CCN(c2ccc(F)cc2)CC1)c1ccccc1 (stereo not drawn) | inconclusive: 35.5 µM [inhibitor, partial curve] | 
31 | Cc1ccc(OCCN2CCCC2)cc1 | inconclusive: 28.2 µM [inhibitor, single point] | 
32 | COc1ccc(NC(=O)c2cc(-c3ccco3)nc3ccccc23)cc1 | inconclusive: 17.8 µM [inhibitor, partial curve] | 
33 | Cc1ccc(NC(=O)CNCCCN2CCOCC2)cc1S(=O)(=O)N1CCCCC1 | inconclusive: 15.8 µM [inhibitor, partial curve] | 
34 | CCc1cccc(Nc2c([N+](=O)[O-])cc(C(=O)N3CC(=O)Nc4ccccc43)cc2[N+](=O)[O-])c1 | inconclusive: 15.8 µM [inhibitor, partial curve] | 
35 | CCCOP(=O)(OCCC)C(Nc1ccc(C(C)C)cc1)c1ccc([N+](=O)[O-])cc1 (stereo not drawn) | inconclusive: 37.7 µM [inhibitor, single point] | 
36 | O=C(c1cn(-c2ccccc2)nc1-c1cccc([N+](=O)[O-])c1)N1CCCCC1 |  | inactive: 12.9%
37 | Brc1ccc(-c2cn3ccccc3n2)cc1 |  | inactive: -7.05%
38 | CC1(C)CC(=O)C2=C(C1)NC1=C(C(=O)c3ccccc31)C2c1cc([N+](=O)[O-])ccc1O (stereo not drawn) | inconclusive: 14.1 µM [inhibitor, partial curve] | 
39 | CCOc1ccccc1Nc1nc(-c2sc(C)nc2C)cs1 | inconclusive: 3.55 µM [inhibitor, full curve] | 
40 | Cc1ccc(C)c(NC(=O)Cn2nnc(C(=O)NCc3cccs3)c2N)c1 | inconclusive: 22.4 µM [inhibitor, partial curve] | 
41 | Fc1cccc(Cl)c1CNc1ccc(N2CCCC2)cc1 | inconclusive: 8.91 µM [inhibitor, partial curve] | 
42 | Cc1ccc(S(=O)(=O)Cn2nnnc2C(C(C)C)N2CCN(C(=O)c3ccco3)CC2)cc1 (stereo not drawn) |  | inactive: -5.77%
43 | O=[N+]([O-])c1cccc(-c2ccc(C(=S)N3CCOCC3)o2)c1 | inconclusive: 28.2 µM [inhibitor, single point] | 
